Results published in PubChem BioAssay AID504332 (National Center for Advancing Translational Sciences (NCATS), 2011).
“And” between values parts separate entries of the source, which are not always exact repeats. Equal entries are not always repeated. About 31,000 (8.9%) of roughly 350,000 compounds were called active. The inconclusive results got no clear call from the source; some entries with a clear call stand among them for comparison. Calls come from the whole dose curve; as a rule, active = well fitted inhibition curve with a large enough effect; inconclusive = small, poorly fitted or top-dose-only effect; inactive = no such curve, though single readings can be large or run the other way. Potencies beside an inconclusive call are fits to weak or partial responses and may not hold up.

biological target: Histone-lysine N-methyltransferase EHMT2 (Homo sapiens) (UniProt Q96KQ7); experiment: qHTS Assay for Inhibitors of Histone Lysine Methyltransferase G9a; details: G9a H3K9 monomethylation, AlphaScreen, 2 h; activity, negative = inhibition: at 59 µM (top of the series) unless noted; note: nearly all actives have a fitted effect of over 75% in size
Sequence of UniProt Q96KQ7 (Q96KQ7 whole entry, looked up): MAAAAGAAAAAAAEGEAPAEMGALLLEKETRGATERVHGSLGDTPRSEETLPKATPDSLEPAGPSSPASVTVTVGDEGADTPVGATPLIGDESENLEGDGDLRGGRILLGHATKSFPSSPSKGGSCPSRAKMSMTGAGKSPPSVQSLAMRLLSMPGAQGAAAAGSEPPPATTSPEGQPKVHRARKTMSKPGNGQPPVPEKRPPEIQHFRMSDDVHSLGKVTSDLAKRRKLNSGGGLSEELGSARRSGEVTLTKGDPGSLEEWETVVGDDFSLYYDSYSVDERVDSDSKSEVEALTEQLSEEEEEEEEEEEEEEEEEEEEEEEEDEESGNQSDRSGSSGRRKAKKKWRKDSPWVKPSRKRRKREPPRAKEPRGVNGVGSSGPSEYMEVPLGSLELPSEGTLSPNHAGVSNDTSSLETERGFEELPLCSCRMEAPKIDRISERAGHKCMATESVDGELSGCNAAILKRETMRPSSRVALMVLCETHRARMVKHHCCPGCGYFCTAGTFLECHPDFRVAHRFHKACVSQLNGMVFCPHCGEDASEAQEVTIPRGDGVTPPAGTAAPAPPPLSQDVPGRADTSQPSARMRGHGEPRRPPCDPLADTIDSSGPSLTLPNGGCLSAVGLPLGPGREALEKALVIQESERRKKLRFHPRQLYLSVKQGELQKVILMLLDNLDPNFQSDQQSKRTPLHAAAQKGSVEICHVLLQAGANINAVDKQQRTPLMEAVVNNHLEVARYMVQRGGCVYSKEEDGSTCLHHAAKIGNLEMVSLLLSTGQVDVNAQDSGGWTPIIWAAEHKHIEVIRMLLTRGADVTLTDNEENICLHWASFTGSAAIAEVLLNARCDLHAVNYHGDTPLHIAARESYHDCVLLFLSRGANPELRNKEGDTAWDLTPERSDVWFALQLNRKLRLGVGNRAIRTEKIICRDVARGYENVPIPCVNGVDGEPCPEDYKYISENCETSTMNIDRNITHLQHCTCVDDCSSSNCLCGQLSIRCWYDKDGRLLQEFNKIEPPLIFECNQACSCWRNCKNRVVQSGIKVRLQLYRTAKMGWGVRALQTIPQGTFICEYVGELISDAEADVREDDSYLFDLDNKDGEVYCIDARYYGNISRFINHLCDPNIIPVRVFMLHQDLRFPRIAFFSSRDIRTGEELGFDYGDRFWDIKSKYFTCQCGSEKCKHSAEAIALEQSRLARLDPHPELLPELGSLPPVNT
Outline: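 Chemiluminescent proximity detection of H3K9 monomethylation, read after 10 min bead incubation in the dark. Reaction: 20 nM G9a, 500 nM biotin-H3K9 peptide, 20 uM SAM cofactor, 2 h, room temperature, following 15 min enzyme-compound preincubation.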
% is set by controls: 0 for no effect and ±100 for the full control effect; potency is the fitted concentration of half-maximal effect; tags give direction and shape of the fitted curve.

SMILES | activity, negative = inhibition | Potency
CCCCOc1ccc(CNC(=O)c2ccc3c(c2)N(C)C(=O)C2CCCCN32)cc1 (stereo unspecified) | inactive: 0.427% | –
COc1ccc(/C=N/N=C2\SC(CC(=O)O)C(=O)N2c2ccccc2)cc1 (stereo unspecified) | – | inconclusive: 89.1 µM [inhibitor, single point]
O=C1Cc2ccccc2C(=O)N1Cc1ccccc1 | – | active: 50.1 µM
CCc1cccc(CC)c1NC(=O)C1SC(=Nc2ccccc2C)C(c2nc3ccccc3s2)=C1N (stereo unspecified) | – | inconclusive: 15.8 µM [inhibitor, single point]
Cc1cc(=O)oc2c(C(=O)/C=C\c3cccs3)c(O)ccc12 | – | active: 44.7 µM
O=C(c1ccccc1)N(Nc1ccccc1)c1ccccc1 | inactive: -17.7% [at 102 µM] | –
COCCN(C(=O)c1cc2c(s1)CCC2)c1c(N)n(CC(C)C)c(=O)[nH]c1=O | inactive: -45.1% [at 12.7 µM] | –
Cc1ccccc1NS(=O)(=O)c1ccc(C(=O)NCC(c2ccccc2)N(C)C)cc1 (stereo unspecified) | – | inconclusive: 56.2 µM [inhibitor, partial curve, poor fit]
Cc1ccc(NC(=O)COc2nsnc2N2CCOCC2)cc1Cl | – | inconclusive: 89.1 µM [inhibitor, single point]
CCOC(=O)N1CCC(NC(=O)c2cc(-c3ccc(F)cc3)[nH]c2C)CC1 | – | inconclusive: 89.1 µM [inhibitor, single point]
CC(=O)N1c2ccc(S(=O)(=O)N3CCC(C(=O)Nc4cccc(Cl)c4)CC3)cc2CC1C (stereo unspecified) | inactive: 28.1% | –
O=C(Cc1c[nH]c2ccccc12)N1CCN(c2ccccc2)CC1 | – | inconclusive: 44.7 µM [inhibitor, partial curve, poor fit]
O=C(CSc1nnc(-c2ccc(C(F)(F)F)cn2)o1)Nc1ccccc1Cl | inactive: 24.8% [at 102 µM] | –
Cc1ccc(/C=N/NC(=O)Cn2nnc(N)n2)o1 | – | active: 44.7 µM
Cc1ccc(NC(=O)c2nc[nH]c2C(=O)N[C@H](C)c2ccccc2)cc1 | inactive: 8.28% [at 0.501 µM] | –
CC/C(=N\NS(=O)(=O)c1ccc(C)cc1)c1ccco1 | – | inconclusive: 89.1 µM [inhibitor, single point]
Nc1c2ccccc2nc2ccccc12 | – | inactive and inconclusive: 50.1 µM [inhibitor, partial curve, poor fit]
Cc1cccc(C(C)C)c1NC(=O)C(NS(=O)(=O)c1cccc2nsnc12)c1ccccc1 (stereo unspecified) | – | inconclusive: 25.1 µM [inhibitor, partial curve, poor fit]
c1ccc(C2=Nn3c(nnc3-c3ccncc3)SC2)cc1 | – | inconclusive: 3.98 µM [inhibitor, single point]
COc1cc(C(=O)N2CCN(C/C=C/c3ccccc3)CC2)cc(OC)c1OC | – | inconclusive: 22.4 µM [inhibitor, single point]
CCOC(=O)c1sc(N(Cc2ccccc2)C(=O)COC(=O)c2ccccc2O)nc1C | – | inconclusive: 89.1 µM [inhibitor, single point]
O=C(Cc1cccc2ccccc12)N/N=C/c1ccc(Sc2cccc3cccnc23)o1 | – | inconclusive: 89.1 µM [inhibitor, single point]
Cc1ccc(CNC(=O)c2nccnc2C(=O)O)cc1 | – | active: 50.1 µM

SMILES | activity, negative = inhibition | Potency
COc1ccccc1S(=O)(=O)Cc1ccc(C(=O)NCCN2CCCCCC2)o1 | – | active: 50.1 µM
CC(NC(=O)C12CC3CC(CC(C3)C1)C2)C(=O)NCCN(C)C (stereo unspecified) | inactive: -4.58% [at 102 µM] | –
Cc1ccc(C)c(NS(=O)(=O)c2ccc(OCC(=O)NCc3ccco3)cc2)c1 | inconclusive: -96.1% [inhibitor] | –
Cc1ccc(S(=O)(=O)N2[C@@H](c3cccc(Cl)c3)C(C(=O)O)=CC[C@H]2c2ccc(C(C)C)cc2)cc1 | inactive: -8.32% [at 2.33 µM] | –
O=C(/C=C/c1ccc([N+](=O)[O-])cc1)OCc1cnc(-c2ccccc2)o1 | – | inconclusive: 89.1 µM [inhibitor, single point]
Oc1ccccc1CNc1nc2ccccc2n1CCN1CCCCC1 | – | inconclusive: 3.55 µM [inhibitor, partial curve, poor fit]
CCCOC1CCCN(C(=O)c2ccc3oc(C(C)C)nc3c2)C1 (stereo unspecified) | inactive: 30.5% [at 102 µM] | –
O/N=C1\CCCc2nnc3c(c21)CCCC3 | – | inconclusive: 22.4 µM [inhibitor, single point]
COc1ccc(-c2c(C)c3ccc(O)c(CN4CCCC4)c3oc2=O)cc1OC | inactive: 13.2% | –
Cc1cc(C)cc(C(=O)N2CC(=O)Nc3ccccc32)c1 | inactive: -0.998% | –
Cc1cccc2cc(C#N)c(SCc3nnc(-c4ccccc4[N+](=O)[O-])o3)nc12 | – | inconclusive: 5.62 µM [inhibitor, single point]
COc1ccc(/C=N/NC(=O)CN(c2ccc(OC)cc2)S(=O)(=O)c2ccccc2)cc1 | – | inconclusive: 39.8 µM [inhibitor, partial curve, poor fit]
Cc1ccc(C(=O)Nc2ccc(Br)cc2)cc1S(=O)(=O)Nc1ccccn1 | – | active: 79.4 µM
O=C(CSc1nc2cc(Cl)ccc2o1)N1CCOCC1 | inactive: 21% [at 12.7 µM] | –
Cc1nc(N2CCN(C(=O)c3ccco3)CC2)c2c3c(sc2n1)CCCC3 | – | inconclusive: 39.8 µM [inhibitor, single point]
CCOC(=O)c1ccccc1NC(=S)N1CCN(C(=O)c2ccco2)CC1 | inactive: -1.99% [at 102 µM] | –
O=c1cc(-c2ccccc2Cl)c2c([nH]1)CCC2 | – | inconclusive: 39.8 µM [inhibitor, single point]
CC(C(=O)Nc1ccc(C(N)=O)cc1)N1C(=O)c2ccccc2S1(=O)=O (stereo unspecified) | inactive: -21.3% [at 102 µM] | –
O=C(COC(=O)Cc1ccsc1)Nc1ccccc1 | inactive: -22.3% [at 102 µM] | –
Cc1ccccc1CSc1ccc(-c2cccs2)nn1 | inactive: 121% | –
C=CCOCC(O)CS(=O)(=O)Cc1ccc(Cl)cc1 (stereo unspecified) | – | inconclusive: 89.1 µM [inhibitor, single point]
CC(C)CC(=O)Nc1ccc(C(=O)COC(=O)CN2C(=O)NC3(CCCCC3C)C2=O)cc1 (stereo unspecified) | – | inconclusive: 89.1 µM [inhibitor, single point]
O=C(NCC(c1cccs1)S(=O)(=O)c1cccs1)c1cccc(F)c1 (stereo unspecified) | inactive: -3.14% | –
